Results as given in patent publication US20220008504A1, “METHODS AND COMPOSITIONS FOR TREATMENT OF ABERRANT HEMATOPOIESIS” (The Methodist Hospital, priority 2019, published 2022).

Legend:
runx1 expression = test: WISH analysis of runx1 expression in Aibp2-deficient zebrafish (HSC emergence); conditions: apoa1bp2 knockouts or morphants treated with atorvastatin; FIG. 2C
cmyb+kdrl+ cells = cmyb+kdrl+ cells (nascent HSCs) in the DA floor; conditions: zebrafish, in vivo
srebf2 = srebf2 expression (mirrors Srebp2 transcriptional activity); conditions: zebrafish, in vivo
HSC emergence = test: HSC emergence, WISH of runx1 in the DA, with or without Srebp2 disruption; conditions: FIG. 4C
free cholesterol levels = conditions: Aibp2-deficient animals
Lin-Sca-1+c-Kit+ HSPCs = test system: Lin-Sca-1+c-Kit+ HSPCs; set-up: species or system mice; conditions: mouse, in vivo
SREBP2 = test: Immunoblot of SREBP2 activation in HUVECs; type: cell-based, human
From the text: SS: secretion signal. FIGS. 3B and 3C show qRT-PCR analyses of srebf1 and srebf2 in the AGM regions of Aibp2 overexpression (FIG. 3B) or knockdown zebrafish (FIG. 3C). […] P: Srebp2 precursor; N: nuclear Srebp2.
Cellular cholesterol homeostasis is sustained by LDL cholesterol uptake, Srebp2-mediated cholesterol synthesis, and HDL-mediated cholesterol efflux. Since cholesterol pools in the plasma membrane and ER are interconnected, Applicants next probed the effect of cholesterol efflux on Srebp2 activation.

Question: Which results are given for `CC(C)c1c(C(=O)Nc2ccccc2)c(-c2ccccc2)c(-c2ccc(F)cc2)n1CC[C@@H](O)C[C@@H](O)CC(=O)O` [Atorvastatin, atorvastatin]?
Answer: runx1 expression (runx1 expression): restored largely; cmyb+kdrl+ cells in the DA floor (cmyb+kdrl+ cells): expanded; srebf2 expression (srebf2): markedly augmented; HSC emergence (HSC emergence): augmented; atorvastatin-augmented HSC emergence under Srebp2 disruption (HSC emergence; Srebp2 disruption): abolished; free cholesterol levels (free cholesterol levels): reduced

Question: With `C=C(C)[C@@H]1CC[C@]2(CO)CC[C@]3(C)[C@H](CC[C@@H]4[C@@]5(C)CC[C@H](O)C(C)(C)[C@@H]5CC[C@]43C)[C@@H]12` [betulin] as the molecule, how does the “HFD-induced increase in HSC numbers in the bone marrow” value (Lin-Sca-1+c-Kit+ HSPCs) read?
Answer: inhibited

Question: What about the “WD-induced augmentation of HSPC frequency” value (Lin-Sca-1+c-Kit+ HSPCs) of the same molecule?
Answer: abolished

Question: For Methyl-β-cyclodextrin [MβCD], which SREBP2 activation (SREBP2) is on record?
Answer: robustly activated
